# Read counts are not given, so values of variants with three or more changes are uncertain.
# B1: LINE1-mini (parent)
# chain: GGCAGAGCUCAACACAGCGUGGCAAAGUGGCUGUGGCUAGACUGCC
# Variants of: B1
# Test: self-cleavage, relative activity (ratio to wild type); higher = more cleavage; in vitro, sequencing; the parent is a self-cleaving ribozyme
row,Variant,self-cleavage
1,GGCAGAGCUCAACACAGCGUGGCAAAGUGGCAGUGGCUAGCUUGCC [U32A A41C C42U],0.08
2,GGCAGAGCUCAACACAGCGUGGCAAAGUGGGUGCCGCUAGACUUCC [C31G U34C G35C G44U],0.04
3,GGCAGAGCUCAACACAGCGUGGCAAAGUGACUGUGGCUACACCGCC [G30A G40C U43C],0.05
4,GGCAGAGCUCAACACAGCGUGGCAAAGUGUCUGUGGCUAUAUUGUC [G30U G40U C42U C45U],0.06
5,GGCAGAGCUCAACACAGCGUGGCAAAGUGGCCGCGGCUAGACUGUC [U32C U34C C45U],0.02
6,GGCAGAGCUCAACACAGCGUGGCAAAGUGGAUGUGGCUAGCCUUCC [C31A A41C G44U],0.03
7,GGCAGAGCUCAACACAGCGUGGCAAAGUGUAGGUGCCUAGACUGCC [G30U C31A U32G G36C],0.06
8,GGCAGAGCUCAACACAGCGUGGCAAAGUGACAGAGGCUAGCCUUCC [G30A U32A U34A A41C G44U],0.01
9,GGCAGAGCUCAACACAGCGUGGCAAAGUGCCUGUGGCUAUUCUGUC [G30C G40U A41U C45U],0.12
10,GGCAGAGCUCAACACAGCGUGGCAAAGUGUCAGUGACUAAACUGCC [G30U U32A G36A G40A],0.01
11,GGCAGAGCUCAACACAGCGUGGCAAAGUGGUUGUGGCAAGAGUGCC [C31U U38A C42G],0.03
12,GGCAGAGCUCAACACAGCGUGGCAAAGUGGUUGUUGCUAGCCUGCC [C31U G35U A41C],0
13,GGCAGAGCUCAACACAGCGUGGCAAAGUGGUUGACGCUAGACUGCC [C31U U34A G35C],0.02
14,GGCAGAGCUCAACACAGCGUGGCAAAGUGGCAGUGGCGAGCGUGCC [U32A U38G A41C C42G],0.03
15,GGCAGAGCUCAACACAGCGUGGCAAAGUGGCACUAGCUAGACUGCC [U32A G33C G35A],0.07
16,GGCAGAGCUCAACACAGCGUGGCAAAGUGGCGCUGGCUAGACUGUC [U32G G33C C45U],0.13
17,GGCAGAGCUCAACACAGCGUGGCAAAGUGACUGUGGCCACACUGCC [G30A U38C G40C],0.05
18,GGCAGAGCUCAACACAGCGUGGCAAAGUGGCGGUGGCUAGCCCCCC [U32G A41C U43C G44C],0.05
19,GGCAGAGCUCAACACAGCGUGGCAAAGUGGUUGUGACUCGACUGCC [C31U G36A A39C],0.02

row,Variant,self-cleavage
1,GGCAGAGCUCAACACAGCGUGGCAAAGUGCCGGUGGCUAGACUGCA [G30C U32G C46A],0.06
2,GGCAGAGCUCAACACAGCGUGGCAAAGUGGAUUUGGCUAUACUGUC [C31A G33U G40U C45U],0.14
3,GGCAGAGCUCAACACAGCGUGGCAAAGUGUCUGUGUCUAUACUGCC [G30U G36U G40U],0.1
4,GGCAGAGCUCAACACAGCGUGGCAAAGUGUCUGUGGCUAGAAGGCC [G30U C42A U43G],0.02
5,GGCAGAGCUCAACACAGCGUGGCAAAGUGGAGGUGGCAAGACUGCC [C31A U32G U38A],0.02
6,GGCAGAGCUCAACACAGCGUGGCAAAGUGGCACAGGCUAGACUGCC [U32A G33C U34A],0.01
7,GGCAGAGCUCAACACAGCGUGGCAAAGUGCUUGUGGUUAAACUUCC [G30C C31U C37U G40A G44U],0.01
8,GGCAGAGCUCAACACAGCGUGGCAAAGUGACUGUGCCUAGACUGCA [G30A G36C C46A],0.05
9,GGCAGAGCUCAACACAGCGUGGCAAAGUGUCUGCGGCUAGACUGCU [G30U U34C C46U],0.09
10,GGCAGAGCUCAACACAGCGUGGCAAAGUGUGUGUGGGUAGACUGCC [G30U C31G C37G],0.04
11,GGCAGAGCUCAACACAGCGUGGCAAAGUGGAUGUGGUUAGCCUGCC [C31A C37U A41C],0.02
12,GGCAGAGCUCAACACAGCGUGGCAAAGUGGCAGUGGUUAGUCUGCC [U32A C37U A41U],0.03
13,GGCAGAGCUCAACACAGCGUGGCAAAGUGCCUGUCGGUAGACUGCC [G30C G35C C37G],0.11
14,GGCAGAGCUCAACACAGCGUGGCAAAGUGGCGGUGGAUAGAUUGCA [U32G C37A C42U C46A],0.05
15,GGCAGAGCUCAACACAGCGUGGCAAAGUGGGUUUGGCUAGACUGCG [C31G G33U C46G],0.05
16,GGCAGAGCUCAACACAGCGUGGCAAAGUGACUGCGGCUGGACUGCC [G30A U34C A39G],0.05
17,GGCAGAGCUCAACACAGCGUGGCAAAGUGGGUGUCGCUAGUCUGCC [C31G G35C A41U],0.03
18,GGCAGAGCUCAACACAGCGUGGCAAAGUGGCAGUGCCCAGACUUCC [U32A G36C U38C G44U],0.03
19,GGCAGAGCUCAACACAGCGUGGCAAAGUGGCAGUGGUUAGACUGAC [U32A C37U C45A],0.01

row,Variant,self-cleavage
1,GGCAGAGCUCAACACAGCGUGGCAAAGUGGAUGUGGUUAGAAUGCC [C31A C37U C42A],0.07
2,GGCAGAGCUCAACACAGCGUGGCAAAGUGUCGGUGGCUAGACUGUC [G30U U32G C45U],0.02
3,GGCAGAGCUCAACACAGCGUGGCAAAGUGACAUUGGCUAGACUGCC [G30A U32A G33U],0.05
4,GGCAGAGCUCAACACAGCGUGGCAAAGUGGUAGUGGAAAGGCUGCC [C31U U32A C37A U38A A41G],0.06
5,GGCAGAGCUCAACACAGCGUGGCAAAGUGGCGGUAGAUACACUGCC [U32G G35A C37A G40C],0.12
6,GGCAGAGCUCAACACAGCGUGGCAAAGUGGCGGUGGCUUGACUGAC [U32G A39U C45A],0.04
7,GGCAGAGCUCAACACAGCGUGGCAAAGUGGAUGUGGGUAGACUACC [C31A C37G G44A],0.01
8,GGCAGAGCUCAACACAGCGUGGCAAAGUGGGUGUGGAAAGACUGCC [C31G C37A U38A],0.04
9,GGCAGAGCUCAACACAGCGUGGCAAAGUGGUUGUCGAUAGACUGCC [C31U G35C C37A],0.12
10,GGCAGAGCUCAACACAGCGUGGCAAAGUGACUGUGGCUACACUGCA [G30A G40C C46A],0.12
11,GGCAGAGCUCAACACAGCGUGGCAAAGUGACGGUGGCUAGGCUGCC [G30A U32G A41G],0.19
12,GGCAGAGCUCAACACAGCGUGGCAAAGUGGCAGUGCCUAGACUGUC [U32A G36C C45U],0.06
13,GGCAGAGCUCAACACAGCGUGGCAAAGUGGGUGGGGCUAGACUCCC [C31G U34G G44C],0.02
14,GGCAGAGCUCAACACAGCGUGGCAAAGUGGCGGUGGCUAGACUGUA [U32G C45U C46A],0.07
15,GGCAGAGCUCAACACAGCGUGGCAAAGUGUCUGUGGAUAGCCUGCG [G30U C37A A41C C46G],0.01
16,GGCAGAGCUCAACACAGCGUGGCAAAGUGGUUGUCGCUAGAGUGCC [C31U G35C C42G],0.03
17,GGCAGAGCUCAACACAGCGUGGCAAAGUGGCCCUGGCUAGGCUGCC [U32C G33C A41G],0.04
18,GGCAGAGCUCAACACAGCGUGGCAAAGUGGAUGUAGCUACACUACC [C31A G35A G40C G44A],0
